# Experimental data reported in publication PMC4336329 (PLoS ONE, 2015).
# Screen size: about 310,000 compounds; about 14,000 (4.5%) showed an effect of 50% or more. Effects have a minus sign here. Some of the results follow.
# Molecular target: human ether-à-go-go-related gene (hERG) potassium channel (human, UniProt Q12809)
# Assay: primary screen, population patch clamp on CHO cells stably expressing hERG
# 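Also: peak tail current of the secondary pulse compared with the same well before compound.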
# Sequence of human ether-à-go-go-related gene (hERG) potassium channel (Q12809 whole entry, looked up): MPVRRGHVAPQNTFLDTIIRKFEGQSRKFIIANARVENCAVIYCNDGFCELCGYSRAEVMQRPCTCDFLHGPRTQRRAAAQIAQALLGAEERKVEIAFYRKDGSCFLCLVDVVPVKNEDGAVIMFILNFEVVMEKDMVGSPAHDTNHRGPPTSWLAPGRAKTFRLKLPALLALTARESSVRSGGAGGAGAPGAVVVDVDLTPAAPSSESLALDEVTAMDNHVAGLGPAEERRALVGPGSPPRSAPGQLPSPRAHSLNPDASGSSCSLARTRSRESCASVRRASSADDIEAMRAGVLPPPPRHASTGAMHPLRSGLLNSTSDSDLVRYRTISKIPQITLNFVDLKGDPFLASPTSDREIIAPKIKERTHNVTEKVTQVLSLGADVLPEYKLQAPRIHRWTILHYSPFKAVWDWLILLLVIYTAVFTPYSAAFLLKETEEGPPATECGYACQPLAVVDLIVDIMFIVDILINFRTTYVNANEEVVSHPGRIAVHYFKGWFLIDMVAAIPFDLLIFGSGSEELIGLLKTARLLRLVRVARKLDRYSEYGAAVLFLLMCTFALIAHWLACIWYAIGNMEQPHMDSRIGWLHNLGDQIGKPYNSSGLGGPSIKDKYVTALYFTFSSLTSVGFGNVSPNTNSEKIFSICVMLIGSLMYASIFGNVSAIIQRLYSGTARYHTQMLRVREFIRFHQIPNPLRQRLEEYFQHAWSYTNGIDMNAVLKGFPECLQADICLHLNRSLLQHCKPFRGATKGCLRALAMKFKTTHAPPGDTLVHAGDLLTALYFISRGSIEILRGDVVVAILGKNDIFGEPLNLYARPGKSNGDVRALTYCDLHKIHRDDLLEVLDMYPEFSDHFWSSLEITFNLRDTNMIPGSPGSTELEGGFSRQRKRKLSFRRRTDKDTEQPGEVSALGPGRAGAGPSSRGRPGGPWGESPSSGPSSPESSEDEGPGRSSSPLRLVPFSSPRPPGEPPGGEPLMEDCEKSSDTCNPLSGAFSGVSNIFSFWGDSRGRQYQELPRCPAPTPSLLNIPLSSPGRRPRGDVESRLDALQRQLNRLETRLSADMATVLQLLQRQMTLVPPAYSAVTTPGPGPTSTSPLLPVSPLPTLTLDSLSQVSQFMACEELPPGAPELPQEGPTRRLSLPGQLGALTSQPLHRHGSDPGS
row,Structure (SMILES),"hERG current change (%, negative = inhibition) at 10uM"
1,CCC1CCCCN1C(=O)COc1c(Br)cc(Br)c2cccnc12 (stereo not drawn),-40.1%
2,Cc1cc(=O)n2[nH]c(-c3ccc(F)cc3)cc2n1,8.47%
3,CC(=O)Nc1ccc(S(=O)(=O)NCCC(=O)NCCCc2ccccc2)cc1,-4.34%
4,COc1ccc(/C=N/n2cncn2)cc1Cn1cc([N+](=O)[O-])cn1,-32.1%
5,COCCCN(C(=O)c1cc2c(s1)CCC2)c1c(N)n(Cc2ccccc2)c(=O)[nH]c1=O,9.69%
6,O=C(CN(Cc1ccccc1F)C(=O)c1csnn1)NCc1ccc2c(c1)OCO2,-22%
7,COCc1c(Br)c(C)nc(OCC(=O)N/N=C/c2ccc(C)o2)c1C#N,3.75%
8,CCc1ccc(/C=N/n2c(COc3ccccc3)n[nH]c2=S)cc1,20.4%
9,O=C(NCc1cccc(C(F)(F)F)c1)c1cc(Cl)ccc1Cl,20.9%
10,COc1ccc2[nH]cc(CCNC(=O)COc3cc(C)cc4oc(=O)cc(C)c34)c2c1,-24.3%
11,O=C(NCCN1C(=O)C2C3C=CC(C3)C2C1=O)Nc1ccccn1 (stereo not drawn),3.05%
12,COc1ccc(C(=O)COc2cccc(NC(=O)c3ccco3)c2)cc1,-32.8%
13,CCCOc1ccccc1NC(=O)c1ccc(N)cc1,-19.9%
14,CSc1ccccc1NC(=S)NC1CCCCC1,4.6%
15,COc1ccc(S(=O)(=O)Cc2ccc(C(=O)NC3CC3)o2)cc1,-2.21%
16,CCOC(=O)c1cccc(-n2c(C)nc3ccccc3c2=O)c1,-2.44%
17,CC1CC(CCC(=O)NC(=S)Nc2ccc(S(N)(=O)=O)cc2)C(=O)O1 (stereo not drawn),14.5%
18,CCC1(C)CC(CC(=O)O)(c2ccccc2OC)CCO1 (stereo not drawn),1.8%
19,CCOC(=O)Cc1csc(NC(=O)c2sc3nc4ccc(CC)cc4cc3c2N)n1,0.191%

row,Structure (SMILES),"hERG current change (%, negative = inhibition) at 10uM"
1,CC(C)c1ccc(N(CC(=O)NCCc2ccccc2)C(=O)c2csnn2)cc1,-60%
2,Cc1cccc(NC(=O)C2CC(O)CN2C(=O)OCc2ccccc2)c1 (stereo not drawn),-0.191%
3,Cc1ccc(S(=O)(=O)NCCC(=O)N2CCC(C(N)=O)CC2)cc1C,-6.54%
4,COc1ccc(NC(=O)CSc2nncn2C)cc1,24.7%
5,Cc1ccc2cccc(SCC(=O)Nc3ccc(F)cc3)c2n1,2.39%
6,N#Cc1ccccc1Sc1ccccc1C(=O)OCC(=O)NC1CCCCC1,-3.71%
7,Cc1ccc2[nH]c3ccccc3c(=O)c2c1,5.96%
8,Cc1cc2ncn(CC(C)C)c2cc1C,-3.79%
9,CC(OC(=O)c1ccc(-n2cnnn2)cc1)C(=O)Nc1ccccc1[N+](=O)[O-] (stereo not drawn),-21.6%
10,CCOC(=O)c1cccc(P(C)(C)=O)c1,11%
11,O=C(CCc1cn(Cc2ccc(F)cc2)c2ccccc12)N1CCOCC1,-16.4%
12,Cc1ccc(-n2c(C)cc(/C=N/NC(N)=S)c2C)cc1,6.94%
13,COc1cc2c(cc1OC)C(NC(=O)C(F)(F)F)C/C2=N\O (stereo not drawn),-38.2%
14,Cc1nnc(Cl)c2nn(-c3ccccc3)c(C)c12,16.3%
15,O=S(=O)(N/N=C\c1ccc2c(c1)OCO2)c1ccc(F)cc1,17.3%
16,Cn1c(=O)c2c(nc(Oc3ccc4c(c3)OCO4)n2Cc2ccc(F)cc2)n(C)c1=O,7.27%
17,COCCSc1ccccc1C(=O)Nc1nccs1,-2.77%
18,COc1ccc(C(=O)Nc2ccc(/C(C)=N/NC(=O)c3ccncc3)cc2)cc1,-33.5%
19,COc1ccc(OCc2nnc3n2N=C(c2ccc(C)cc2)CS3)cc1,8.09%

row,Structure (SMILES),"hERG current change (%, negative = inhibition) at 10uM"
1,O=S1(=O)N[C@H](c2ccccc2)C[C@H](c2ccc(C(F)(F)F)cc2)O1,11.4%
2,COc1ccc(Sc2cc(C(F)(F)F)nc(-c3ccccn3)n2)cc1,-27.1%
3,CCN(CC(=O)NCc1cccs1)C(=O)c1cccc(S(=O)(=O)Nc2ccc(OC)cc2)c1,-37.4%
4,Cc1ccc(-c2nnn(CC(=O)Nc3ccc(S(=O)(=O)N4CCC(C)CC4)cc3)n2)cc1,-4.92%
5,CCC(CC)COC(=O)C1=C(C)NC(=O)NC1c1ccc([N+](=O)[O-])cc1 (stereo not drawn),11.6%
6,Cc1ccc(S(=O)(=O)NC2CC(C)(C)NC(C)(C)C2)cc1,29.9%
7,Cc1nn2cc(-c3cccc(Cl)c3)cnc2c1Cl,11.6%
8,O=c1cc(CN2CCN(c3cccc(C(F)(F)F)c3)CC2)nc2sccn12,-46.3%
9,O=C(NN1C(=O)NC2(CCCCC2)C1=O)c1ccc(-c2ccc([N+](=O)[O-])cc2)o1,-8.54%
10,Cc1ccc(NC(=O)CN2C(=O)NC(Cc3c[nH]c4ccccc34)C2=O)cc1 (stereo not drawn),-0.576%
11,Cc1ccc(-c2cc(C(=O)N/N=C/c3ccco3)[nH]n2)cc1,-12.1%
12,C/C(N)=C(/C#N)C(=O)CSc1nc(C2CCCCC2)n(-c2ccccc2)n1,-30%
13,O=C(/C=C/c1ccncc1)c1cc(Cl)ccc1O,18.7%
14,CCc1ccccc1NC(=O)CN1C(=O)C2CCCN2c2ncc(Cl)cc21 (stereo not drawn),-3.09%
15,CC(C)c1ccc(C(O)P(=O)(OCc2ccccc2)c2ccc(N(C)C)cc2)cc1 (stereo not drawn),14.6%
16,CCCCc1ccc(NC(=O)N[C@@H](CC(C)C)C(=O)O)cc1,7.73%
17,COc1cc(C(=S)N2CCC(C(N)=O)CC2)ccc1O,-8.67%
18,COc1ccccc1N1CCN(/N=C/c2ccccc2C(=O)O)CC1,13.8%
19,CC(C)Cn1c(N)c(C(=O)COC(=O)CC23CC4CC(CC(C4)C2)C3)c(=O)n(C)c1=O,-16.2%
